# Data reported in the supplement of paper PMC4967469.
# Legend:
# Assay in all cases: Viability of human cancer cell lines after 72 h of drug (GDSC screen)
# MG-132 = compound: CC(C)C[C@@H](C=O)NC(=O)[C@H](CC(C)C)NC(=O)[C@H](CC(C)C)NC(=O)OCc1ccccc1 [MG-132]; settings: top dose 1 µM
# Procedure: (§1)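 Human cancer cell lines in 384-well plates, medium with 10% serum, drug for 72 h over a 256-fold dose range (nine 2-fold or five 4-fold steps up to the top dose). Adherent lines were fixed and stained with the nucleic acid dye Syto60, suspension lines read with resazurin; signal relative to control wells, capped at 0 and 100%. One two-parameter sigmoid per drug and line, fitted in a mixed model over all curves with the slope shared within a line.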
# AR-42 = compound: CC(C)[C@H](C(=O)Nc1ccc(C(=O)NO)cc1)c1ccccc1 [AR-42]; settings: top dose 5.12 µM; top dose inferred
# Procedure: as §1
# Pazopanib = compound: Cc1ccc(Nc2nccc(N(C)c3ccc4c(C)n(C)nc4c3)n2)cc1S(N)(=O)=O [Pazopanib]; settings: top dose 8 µM
# Procedure: as §1
# GDC0941 = compound: CS(=O)(=O)N1CCN(Cc2cc3nc(-c4cccc5[nH]ncc45)nc(N4CCOCC4)c3s2)CC1 [GDC0941]; settings: top dose 4 µM; screen: GDSC drug entry 1527; top dose inferred
# Procedure: as §1
# CEP-701 = compound: C[C@]12O[C@H](C[C@]1(O)CO)n1c3ccccc3c3c4c(c5c6ccccc6n2c5c31)CNC4=O [CEP-701]; settings: top dose 2 µM; top dose inferred
# Procedure: as §1
# SB 216763 = compound: Cn1cc(C2=C(c3ccc(Cl)cc3Cl)C(=O)NC2=O)c2ccccc21 [SB 216763]; settings: top dose 10 µM; top dose inferred
# Procedure: as §1
Cell Line,AUC (MG-132),IC50 (MG-132),AUC (AR-42),IC50 (AR-42),AUC (Pazopanib),IC50 (Pazopanib),AUC (GDC0941),IC50 (GDC0941),AUC (CEP-701),IC50 (CEP-701),AUC (SB 216763),IC50 (SB 216763)
"CAL-148 (breast, suspension)",0.942,> 1 µM,0.44,0.223 µM,0.983,> 8 µM,–,–,–,–,–,–
"CP66-MEL (melanoma, adherent)",0.501,0.0627 µM,0.784,2.51 µM,0.918,> 8 µM,0.812,2.52 µM,0.904,> 2 µM,–,–
"D-247MG (glioma, adherent)",0.471,0.0506 µM,0.582,0.582 µM,–,–,0.808,3.07 µM,0.678,0.475 µM,0.979,> 10 µM
"D-336MG (glioma, adherent)",0.778,0.526 µM,0.595,0.63 µM,–,–,0.665,0.825 µM,0.533,0.158 µM,0.931,> 10 µM
"DEL (lymphoid neoplasm, suspension)",0.98,> 1 µM,0.455,0.248 µM,0.968,> 8 µM,0.937,> 4 µM,–,–,0.976,> 10 µM
"ECC12 (stomach, suspension)",0.83,0.864 µM,–,–,–,–,–,–,–,–,–,–
"EKVX (lung adenocarcinoma, adherent)",0.834,> 1 µM,0.805,> 5.12 µM,0.904,> 8 µM,0.713,2.04 µM,0.664,–,–,–
"EVSA-T (breast, adherent)",0.725,0.243 µM,0.408,0.186 µM,0.987,> 8 µM,0.573,0.384 µM,0.743,0.547 µM,–,–
"EW-12 (Ewing sarcoma, suspension)",0.972,> 1 µM,–,–,–,–,–,–,–,–,–,–
"EW-22 (Ewing sarcoma, adherent)",0.984,> 1 µM,–,–,–,–,0.826,2.3 µM,0.771,0.737 µM,0.984,> 10 µM
"GAK (melanoma, adherent)",0.709,0.235 µM,0.623,0.686 µM,–,–,–,–,–,–,0.985,> 10 µM
"HCC1599 (breast, suspension)",0.978,> 1 µM,0.367,0.13 µM,0.961,> 8 µM,–,–,–,–,–,–
"HEL (acute myeloid leukaemia, semi-adherent)",0.682,0.183 µM,0.249,0.071 µM,0.989,> 8 µM,0.973,> 4 µM,–,–,–,–
"HOP-62 (lung adenocarcinoma, adherent)",0.655,0.168 µM,0.528,0.381 µM,0.953,> 8 µM,0.844,2.86 µM,–,–,–,–
"IM-9 (myeloma, suspension)",0.974,> 1 µM,–,–,0.983,> 8 µM,0.982,> 4 µM,0.787,0.745 µM,0.985,> 10 µM
"IST-MES1 (mesothelioma, adherent)",0.826,0.612 µM,0.642,0.791 µM,0.92,> 8 µM,–,–,–,–,–,–

Cell Line,AUC (MG-132),IC50 (MG-132),AUC (AR-42),IC50 (AR-42),AUC (Pazopanib),IC50 (Pazopanib),AUC (GDC0941),IC50 (GDC0941),AUC (CEP-701),IC50 (CEP-701),AUC (SB 216763),IC50 (SB 216763)
"KASUMI-1 (acute myeloid leukaemia, suspension)",0.967,> 1 µM,–,–,–,–,0.386,0.121 µM,0.328,0.0414 µM,0.967,> 10 µM
"KP-N-YS (neuroblastoma, adherent)",0.981,> 1 µM,0.525,0.378 µM,0.981,> 8 µM,–,–,–,–,–,–
"LC-2-ad (lung adenocarcinoma, adherent)",0.872,0.991 µM,0.421,0.193 µM,0.862,7.14 µM,0.684,0.831 µM,–,–,–,–
"LNCaP-Clone-FGC (prostate, adherent)",0.953,> 1 µM,0.338,0.106 µM,0.855,7.85 µM,–,–,–,–,–,–
"LOXIMVI (melanoma, semi-adherent)",0.86,0.697 µM,0.631,0.702 µM,0.943,> 8 µM,0.79,1.58 µM,–,–,–,–
"MDST8 (large intestine, adherent)",0.921,> 1 µM,–,–,0.988,> 8 µM,0.855,3.16 µM,0.51,0.133 µM,0.984,> 10 µM
"MV-4-11 (leukaemia, suspension)",0.826,0.466 µM,–,–,–,–,–,–,–,–,0.815,4.29 µM
"NB7 (neuroblastoma, adherent)",0.974,> 1 µM,0.189,0.0358 µM,0.764,3.03 µM,0.767,1.55 µM,–,–,–,–
"NB17 (neuroblastoma, adherent)",0.705,0.26 µM,0.835,4.08 µM,–,–,–,–,0.695,0.483 µM,0.965,> 10 µM
"NCI-H128 (small cell lung carcinoma, suspension)",0.907,> 1 µM,–,–,–,–,–,–,–,–,–,–
"NCI-H748 (small cell lung carcinoma, suspension)",0.896,> 1 µM,0.257,0.0519 µM,0.974,> 8 µM,–,–,–,–,–,–
"NCI-H1299 (large cell lung carcinoma, adherent)",0.974,> 1 µM,0.832,4.37 µM,0.863,> 8 µM,–,–,–,–,–,–
"NCI-H1355 (lung adenocarcinoma, adherent)",0.736,0.407 µM,0.914,> 5.12 µM,0.868,> 8 µM,0.628,0.658 µM,–,–,–,–
"NCI-H1975 (lung adenocarcinoma, adherent)",0.64,0.161 µM,0.561,0.48 µM,0.913,> 8 µM,–,–,0.709,0.534 µM,–,–
"NCI-H2171 (small cell lung carcinoma, suspension)",0.988,> 1 µM,0.471,0.27 µM,0.989,> 8 µM,–,–,–,–,–,–

# By IC50 is meant the dose at which the fit gives 50% viability; fits outside the tested doses are given as limits. AUC is the area under the same curve over the 256-fold range up to the top dose, as a fraction; values near 1 show little effect. For some of these results: The top dose, if marked as inferred, was derived from the fitted curves, not read from the paper. For some of these results: Drugs with an entry number were screened twice under separate entries, and the two screens often disagree.
